This is one part of the list.
Each sequence was assayed against T1, FOXC2 DBD WT (UniProt Q99958 72-172) (assay: SELEX-seq (GST pull-down, four rounds, 16-nt random library); pH 7.0; 20 mM HEPES, 140 mM KCl, 0.05 mM TCEP-HCl, pH 7.0, room temperature, 30 min; 2.5 uM GST-FOXC2 DBD, 0.25 uM DNA library; high values mean tight binding). Conditions: protein: recombinant; tags: N-terminal GST (pGEX-6P-2); dsDNA, one strand shown.
T1 sequence: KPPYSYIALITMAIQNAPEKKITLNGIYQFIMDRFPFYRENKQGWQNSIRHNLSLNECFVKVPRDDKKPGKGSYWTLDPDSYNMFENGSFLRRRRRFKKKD
In short: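 GST-tagged FOXC2 DNA-binding domain (E. coli-expressed, glutathione-purified) was incubated with a DNA library carrying a 16 bp randomized region, at 0.25 μM DNA and 2.5 μM protein, for 30 min at RT in 20 mM HEPES, 140 mM KCl, 0.05 mM TCEP–HCl, pH 7. Complexes were captured on glutathione Sepharose beads, washed, heat-eluted and PCR-amplified over four rounds. Initial and selected libraries were Illumina MiniSeq sequenced. Relative enrichment came from the Bioconductor SELEX R package.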
With AGCTCT the binding signal was 0.398 relative enrichment. In the case of GTGATA, the binding signal is reported as 0.39 relative enrichment. CCCTTG gave a binding signal of 0.444 relative enrichment. With CGCTAA the binding signal was 0.329 relative enrichment. Work on AATTGA yielded a binding signal of 0.237 relative enrichment. TCTACT was tested, and the binding signal was 0.56 relative enrichment. Sequence CATACC has a binding signal of 0.469 relative enrichment. GAAACA showed a binding signal of 0.347 relative enrichment. TGGCAA showed a binding signal of 0.302 relative enrichment. In the case of AGAACT, the binding signal is reported as 0.394 relative enrichment. For TTCTAC, the binding signal was 0.528 relative enrichment. Work on CATCGC yielded a binding signal of 0.711 relative enrichment. TTCATC was tested, and the binding signal was 0.605 relative enrichment. ACTTCA was tested, and the binding signal was 0.453 relative enrichment. ATCATG gave a binding signal of 0.422 relative enrichment. TCATAA showed a binding signal of 0.453 relative enrichment. ATGTAC gave a binding signal of 0.329 relative enrichment. ATAAAT showed a binding signal of 0.595 relative enrichment. ATTCCC gave a binding signal of 0.519 relative enrichment. CAAATG gave a binding signal of 0.327 relative enrichment. Work on GCCTTT yielded a binding signal of 0.309 relative enrichment. With CATTAC the binding signal was 0.341 relative enrichment. CACACA was tested, and the binding signal was 0.275 relative enrichment. For CATTCA, the binding signal was 0.433 relative enrichment. With TAATGA the binding signal was 0.31 relative enrichment. Sequence ACACGA has a binding signal of 0.377 relative enrichment. GAATTA gave a binding signal of 0.339 relative enrichment. ATATAT was tested, and the binding signal was 0.326 relative enrichment. TCCAAT showed a binding signal of 0.319 relative enrichment. For TCTCTG, the binding signal was 0.51 relative enrichment. TTTCAG showed a binding signal of 0.354 relative enrichment. TGCTAA showed a binding signal of 0.278 relative enrichment. With ACACGT the binding signal was 0.335 relative enrichment. With CCGTAT the binding signal was 0.463 relative enrichment. CACTAC showed a binding signal of 0.531 relative enrichment. Work on ATCTCA yielded a binding signal of 0.406 relative enrichment. AATCCA showed a binding signal of 0.347 relative enrichment. GCACTA showed a binding signal of 0.481 relative enrichment. AAGGTA gave a binding signal of 0.429 relative enrichment. For ACTATA, the binding signal was 0.325 relative enrichment. With TGTCAA the binding signal was 0.457 relative enrichment. Sequence AGCTCA has a binding signal of 0.3 relative enrichment. For TACACC, the binding signal was 0.418 relative enrichment. CTTCAT gave a binding signal of 0.554 relative enrichment. In the case of ATCCCA, the binding signal is reported as 0.419 relative enrichment. AACGGT was tested, and the binding signal was 0.444 relative enrichment. TGAAAA was tested, and the binding signal was 0.309 relative enrichment. GAAAAA showed a binding signal of 0.304 relative enrichment. CAAACA gave a binding signal of 0.57 relative enrichment. With ATTGTC the binding signal was 0.33 relative enrichment. ACCAGT gave a binding signal of 0.591 relative enrichment. With CCCTGT the binding signal was 0.366 relative enrichment. Sequence ACTAAA has a binding signal of 0.284 relative enrichment. CTCGTA gave a binding signal of 0.59 relative enrichment. CATCCA was tested, and the binding signal was 0.528 relative enrichment. With ACTGTG the binding signal was 0.322 relative enrichment. In the case of CAATGG, the binding signal is reported as 0.433 relative enrichment. Sequence AAGCAT has a binding signal of 0.54 relative enrichment. AAACTC was tested, and the binding signal was 0.421 relative enrichment. With AAACCG the binding signal was 0.336 relative enrichment. Work on AAACTG yielded a binding signal of 0.284 relative enrichment. In the case of ACCATG, the binding signal is reported as 0.559 relative enrichment. ATGCAC was tested, and the binding signal was 0.484 relative enrichment. GCATCA was tested, and the binding signal was 0.615 relative enrichment. AAGATA showed a binding signal of 0.3 relative enrichment. CAGATG was tested, and the binding signal was 0.493 relative enrichment. ATTTAC gave a binding signal of 0.56 relative enrichment. In the case of AATCCT, the binding signal is reported as 0.389 relative enrichment. ACCTCT was tested, and the binding signal was 0.569 relative enrichment. Sequence AACTCA has a binding signal of 0.249 relative enrichment. In the case of CACATC, the binding signal is reported as 0.388 relative enrichment. Sequence AATGAT has a binding signal of 0.314 relative enrichment. In the case of AATCTA, the binding signal is reported as 0.278 relative enrichment. In the case of ACTTGC, the binding signal is reported as 0.489 relative enrichment. AACAGG gave a binding signal of 0.325 relative enrichment. For ACAAGT, the binding signal was 0.28 relative enrichment. With AAAAGC the binding signal was 0.326 relative enrichment. With AAAGTC the binding signal was 0.388 relative enrichment. Sequence CAATAC has a binding signal of 0.266 relative enrichment. GTTCAA was tested, and the binding signal was 0.292 relative enrichment. Work on TCCATT yielded a binding signal of 0.339 relative enrichment. Work on CCGAAT yielded a binding signal of 0.621 relative enrichment. For TACTCT, the binding signal was 0.496 relative enrichment. GATAAA was tested, and the binding signal was 0.326 relative enrichment. Work on CAAGTC yielded a binding signal of 0.459 relative enrichment. CACCAC showed a binding signal of 0.647 relative enrichment. Work on AATAAT yielded a binding signal of 0.309 relative enrichment. Work on ATAACA yielded a binding signal of 0.316 relative enrichment. Sequence CCTAAA has a binding signal of 0.34 relative enrichment. In the case of ACAATC, the binding signal is reported as 0.437 relative enrichment. ATAATG gave a binding signal of 0.3 relative enrichment. CGCATA showed a binding signal of 0.349 relative enrichment. For GAATCT, the binding signal was 0.615 relative enrichment. Sequence CTTTTA has a binding signal of 0.288 relative enrichment. AATTAC was tested, and the binding signal was 0.323 relative enrichment. AAAAAA gave a binding signal of 0.226 relative enrichment. ACTGCT was tested, and the binding signal was 0.412 relative enrichment. For CACAGC, the binding signal was 0.323 relative enrichment. CACTCA was tested, and the binding signal was 0.422 relative enrichment. In the case of TTCCAC, the binding signal is reported as 0.502 relative enrichment. For ACACTC, the binding signal was 0.42 relative enrichment. AGTTTC gave a binding signal of 0.336 relative enrichment. AGCCAA gave a binding signal of 0.304 relative enrichment. ACCTAT was tested, and the binding signal was 0.392 relative enrichment. In the case of ATAGAT, the binding signal is reported as 0.461 relative enrichment. CACACT gave a binding signal of 0.351 relative enrichment. Sequence CATTTC has a binding signal of 0.414 relative enrichment. For TATGCA, the binding signal was 0.394 relative enrichment. AGTGTA gave a binding signal of 0.391 relative enrichment. Work on AGATCA yielded a binding signal of 0.547 relative enrichment. CTTCGT gave a binding signal of 0.674 relative enrichment. TCTTCT gave a binding signal of 0.66 relative enrichment. With AGGTAT the binding signal was 0.39 relative enrichment. TAGCTA was tested, and the binding signal was 0.422 relative enrichment. TCGAAA gave a binding signal of 0.41 relative enrichment. CTCTTC showed a binding signal of 0.799 relative enrichment. CGCTTA was tested, and the binding signal was 0.418 relative enrichment. In the case of TTTCAC, the binding signal is reported as 0.296 relative enrichment. Work on AAAGTG yielded a binding signal of 0.343 relative enrichment. ACTTCC showed a binding signal of 0.677 relative enrichment. CATCGT showed a binding signal of 0.553 relative enrichment. With CTTGTA the binding signal was 0.305 relative enrichment. ACCAAC showed a binding signal of 0.436 relative enrichment. TACGAA showed a binding signal of 0.468 relative enrichment. GAATAA showed a binding signal of 0.462 relative enrichment. For AACCAT, the binding signal was 0.316 relative enrichment. Work on TAAATA yielded a binding signal of 0.726 relative enrichment. In the case of TAATTA, the binding signal is reported as 0.207 relative enrichment. Work on TGTTAA yielded a binding signal of 0.314 relative enrichment. Work on TAACTC yielded a binding signal of 0.337 relative enrichment. Sequence CCATTA has a binding signal of 0.286 relative enrichment. Sequence CCTATC has a binding signal of 0.464 relative enrichment. Work on GGCTTA yielded a binding signal of 0.426 relative enrichment. Sequence CAGACT has a binding signal of 0.612 relative enrichment. GACATA showed a binding signal of 0.269 relative enrichment. AGAAAC gave a binding signal of 0.36 relative enrichment. ACACGC showed a binding signal of 0.52 relative enrichment. AATATC showed a binding signal of 0.251 relative enrichment. Work on ATATTA yielded a binding signal of 0.266 relative enrichment. AAGCAG gave a binding signal of 0.486 relative enrichment. Sequence AACGAC has a binding signal of 0.316 relative enrichment. Work on AATCAT yielded a binding signal of 0.403 relative enrichment. TTTCCC gave a binding signal of 0.38 relative enrichment. Work on TAATCA yielded a binding signal of 0.555 relative enrichment. Sequence TGTCTG has a binding signal of 0.336 relative enrichment. In the case of AAATCG, the binding signal is reported as 0.285 relative enrichment. Sequence TTAGAA has a binding signal of 0.333 relative enrichment. GAGTAA gave a binding signal of 0.439 relative enrichment. AACTTA showed a binding signal of 0.218 relative enrichment. In the case of CAATCG, the binding signal is reported as 0.373 relative enrichment. ACATCA gave a binding signal of 0.347 relative enrichment. In the case of ATTCTG, the binding signal is reported as 0.359 relative enrichment. For CAAGAC, the binding signal was 0.425 relative enrichment. With CTCCTT the binding signal was 0.419 relative enrichment. GCCTAT gave a binding signal of 0.388 relative enrichment. Work on ACACCT yielded a binding signal of 0.397 relative enrichment. With TACTTC the binding signal was 0.678 relative enrichment. For ACGATA, the binding signal was 0.322 relative enrichment. For ACGTAT, the binding signal was 0.307 relative enrichment. In the case of GTAATA, the binding signal is reported as 0.366 relative enrichment. In the case of ACGCAT, the binding signal is reported as 0.439 relative enrichment. In the case of ATGTCA, the binding signal is reported as 0.303 relative enrichment. In the case of CATAAC, the binding signal is reported as 0.226 relative enrichment. With CCACTG the binding signal was 0.649 relative enrichment. ACACCA was tested, and the binding signal was 0.401 relative enrichment. Sequence AACCTT has a binding signal of 0.295 relative enrichment. Sequence TGTAAA has a binding signal of 0.331 relative enrichment. With TTGCTC the binding signal was 0.362 relative enrichment. For AAACAC, the binding signal was 0.411 relative enrichment. In the case of AACAAT, the binding signal is reported as 0.374 relative enrichment. CGAATA was tested, and the binding signal was 0.455 relative enrichment. With AACAAG the binding signal was 0.445 relative enrichment. For CAAAAG, the binding signal was 0.294 relative enrichment. CCCAAT was tested, and the binding signal was 0.348 relative enrichment. AGTTAC was tested, and the binding signal was 0.363 relative enrichment. AACAAA showed a binding signal of 0.337 relative enrichment. TACCTA showed a binding signal of 0.442 relative enrichment. Work on ATCTGA yielded a binding signal of 0.44 relative enrichment. Sequence CAATGA has a binding signal of 0.356 relative enrichment. GAAAAC was tested, and the binding signal was 0.323 relative enrichment. With GATATC the binding signal was 0.45 relative enrichment. With ATACCG the binding signal was 0.505 relative enrichment. GAAATA showed a binding signal of 0.451 relative enrichment. TTTCCG was tested, and the binding signal was 0.394 relative enrichment. In the case of AACCCT, the binding signal is reported as 0.358 relative enrichment. With ATTGAG the binding signal was 0.341 relative enrichment. For CTTAAC, the binding signal was 0.232 relative enrichment. GCCAAT showed a binding signal of 0.341 relative enrichment. TAGTAA was tested, and the binding signal was 0.461 relative enrichment. Work on GATCAA yielded a binding signal of 0.421 relative enrichment. For ACAGGC, the binding signal was 0.353 relative enrichment. Sequence TACCCA has a binding signal of 0.526 relative enrichment. In the case of CACGTA, the binding signal is reported as 0.469 relative enrichment. CACTTA gave a binding signal of 0.321 relative enrichment. GTGTTA was tested, and the binding signal was 0.281 relative enrichment. CTTGTC was tested, and the binding signal was 0.297 relative enrichment. ACTTAC gave a binding signal of 0.359 relative enrichment.

From PMC12135187, “A role for pH dynamics regulating transcription factor DNA-binding selectivity”
